22 molecules from paper PMC12136788 can be followed below.

To fix the notation:
B1: ENSG00000107863:be:win_1151|CDS|ENSG00000107863|bound_else_gene|NA|bound_elsewhere_windowed (ssRNA)
RNA: GGGAGUUCUACAGUCCGACGAUCUAGACUGGAAAAACUAUAAAACUUACAAAGAGUAUAUUGAUAACAGACGAUUGCACAUAGGUUGUCGGACAAUACAAGAAAGAUUAGAUAGUUUAAGAGCAGCAUCUCAAAGCACGACAGCAACAGAGGAUUGAGCAUCA
B2: chr6:43013266:43013367:-|CDS|ENSG00000124733|msi1|total|mutant (ssRNA)
RNA: GGGAGUUCUACAGUCCGACGAUCAUCCCUGUCCUACCGCCUCCCUGUUCUUGCAGCCCCUGCCCGGAUGGCAACAGCCGUUCCCGGAGGAGACACCAUGGGCCCUGAGCGUAUCUUCCCCAAUCAGACUGAGGAACUGGGACACAACAGAGGAUUGAGCAUCA
B3: chr22:36281679:36281692:-|3pUTR|ENSG00000100345|msi1_unk|total|mutant (ssRNA)
RNA: GGGAGUUCUACAGUCCGACGAUCUCUUGUGUCUACUCCCGGACUGGGCCCGAGGGUGGUUUACCUGCACCGUUGACUCAGUACCGUUUAAAAAUCUGCCACCUGCACAGGUAUUUUUGAAAGCAAAAUAAGGUUUUCUUUUUUCAACAGAGGAUUGAGCAUCA
B4: chr8:9779869:9779970:+|3pUTR|ENSG00000173273|msi1|total|mutant (ssRNA)
RNA: GGGAGUUCUACAGUCCGACGAUCGGAAUUUCCCGCUUUUCAAGCAGCAUAAGCCGAAUCAACAUCCGGAUGUUUUCAUGAAACCGCAUCCUUAUACUUCUUUGAGCUUGAUGUCCGUGGCCCGACUGAUUUCCCUUUGCUCUCCAACAGAGGAUUGAGCAUCA
B5: chr1:54043363:54043464:-|CDS|ENSG00000116209|msi1|total|mutant (ssRNA)
RNA: GGGAGUUCUACAGUCCGACGAUCCGCACAGAGCUUCAUAACCUCUUCAUGGACUUUUUAUCUUCAAGCCGAUGACGGAAAAACCGUUAUAUUCCAGGUGACAACUGAGCUUCAUGGAUUCAUCUAAAUACUAACAACAGUAAACAACAGAGGAUUGAGCAUCA
B6: ENSG00000181610:stop:overlap|stop_codon|ENSG00000181610|stop_codon|NA|stop_codon (ssRNA)
RNA: GGGAGUUCUACAGUCCGACGAUCGACGAGUAGGCGAAGCAAGGACUGUGAGUAUUUCAUUGUUAAAAUUGUUACUGGGUUUAUAGUUGUCCCUCAGUAUGCACAGGGGAUUGGUGCUAGGGCCCCUGCAGAUACCAAUAUUCACAACAGAGGAUUGAGCAUCA
B7: chr3:100728682:100728848:+|CDS|ENSG00000114354|unk|total|mutant (ssRNA)
RNA: GGGAGUUCUACAGUCCGACGAUCUAAUGGCCAGCCAAGACCCCUUGAAUCAAGUCAGGUGAAAUAUCUCCGUCGAGAACUGACCGAACUUCGAAAUAAAGUGAAUCGUUUAUUGGACCGCUUGGAACCACCUGGAGAACCAGGCAACAGAGGAUUGAGCAUCA
B8: chr2:48379045:48379146:+|3pUTR|ENSG00000170802|unk|FALSE|unique (ssRNA)
RNA: GGGAGUUCUACAGUCCGACGAUCCCUUAUCCUCUUUUCUGAUGUAGCAUAAAAAUUGUCCCGGUUUGAGUUAUAACUGCCAGUAGAUGACCAGUCACAAGUGAACCACUUCUCAGUUGCCAAUCUUUGCUCAUAUUAAAAACACAACAGAGGAUUGAGCAUCA
B9: chr1:17067933:17068034:-|3pUTR|ENSG00000117115|msi1|total|mutant (ssRNA)
RNA: GGGAGUUCUACAGUCCGACGAUCACAUAAGGACCCUGGCCUACCCUCCAGCCCAACAGCCAGUUCUGGGUCAGCUGCCAACUCCGGGGUGGUUUGAUUAUCCCAUUGAAAUUCACCAGUGCCUUUGCCAAAGACCCUCUCAUUCAACAGAGGAUUGAGCAUCA
B10: chr12:50222030:50222167:-|CDS|ENSG00000050405|unk|total|mutant (ssRNA)
RNA: GGGAGUUCUACAGUCCGACGAUCAUCCAGGCAUGAAGCCGAAAAAUCAGAAAUCAGUGAAAACACAGAUGCUUCGGGCAAAACCGAGAAAUAUAAUGUUCCGCUGAACAGGCUUAAGAUGAUGUUUGAGAAAGGUGAACCAACCAACAGAGGAUUGAGCAUCA
B11: chr14:55048714:55048815:+|3pUTR|ENSG00000180008|msi1|total|mutant (ssRNA)
RNA: GGGAGUUCUACAGUCCGACGAUCUUUCUAAUUUUGAACAGAUGACUCAGUCCUAAAUCUUUGCCUUUAUUUCCUAUAAAAUGCCGGUGAUACUUGUAACUCGACUUCCUGGAGUUAAUUCUUCAGCAAGAGGUGACCCUGGGACAACAGAGGAUUGAGCAUCA
B12: chr1:178442813:178442920:+|CDS|ENSG00000075391|unk|total|mutant (ssRNA)
RNA: GGGAGUUCUACAGUCCGACGAUCAAAGCAGACAAUAUUUUCUGGGGCGAACAUUUUGAAUUCUUCAGCCUUCCACCUCUUCACCGUAUCACAGUUCACAUUUACAAGGAUGUGGAAAAAAAGAAAAAAAAGGACAAGAAUAAUCAACAGAGGAUUGAGCAUCA
B13: chr1:193014253:193014354:-|3pUTR|ENSG00000116750|unk|FALSE|unique (ssRNA)
RNA: GGGAGUUCUACAGUCCGACGAUCUUAAUAGGUAUAAGGAUUUUUCUUAUUAAUCUAAUAAAAUUCCUUAAUAGGAAUUUCCAUAGCUUAAGAGUGGUUUAUUUUAUCUGCAUCUUCUUUGGUGAUUGCAAAUCCCUUGUGAUACAACAGAGGAUUGAGCAUCA
B14: chr1:93365539:93365640:+|3pUTR|ENSG00000117505|unk|total|mutant (ssRNA)
RNA: GGGAGUUCUACAGUCCGACGAUCAGGAGGCAAAAUUGCACCCUGUUGAAAACCACCACCUCCGAUCAUCCCGGUUUUACUUUCCGGAUAAGACACUUGAGGGAAAGGCUGUGAAACUGAACCUCUGUCCGAAGCAACACACAGCAACAGAGGAUUGAGCAUCA
B15: chr3:58171454:58171555:+|3pUTR|ENSG00000136068|msi1|total|mutant (ssRNA)
RNA: GGGAGUUCUACAGUCCGACGAUCGGUGAUUAUUUCUUGCAGAAUCACCACACGAGACCAUCCCGGCAGUCAUGGUUUUGCUUCCGUUUUCCAAGUCCGUUUCAGUCCCUUCCUUGGUCUGAAGAAAUUCUGCAGUGGCGAGCACAACAGAGGAUUGAGCAUCA
B16: chr17:81922623:81922724:-|CDS|ENSG00000197063|msi1|total|mutant (ssRNA)
RNA: GGGAGUUCUACAGUCCGACGAUCUGCCGCCGGCCUGGGGCCCCUCGUCCCAGGCAAGGUGGCCGCCACCAGCGUCAUCACAACCGUAAAGUCCAAGACGGAUGCCCGAUCGCCGGGACGCGCGUCUGCCCAGGCGGGUCUUUGCAACAGAGGAUUGAGCAUCA
B17: ENSG00000198589:be:win_2901|CDS|ENSG00000198589|bound_else_gene|NA|bound_elsewhere_windowed (ssRNA)
RNA: GGGAGUUCUACAGUCCGACGAUCUUCAGUAGGAUCCCAGCAACCAGAUACGAAGGAUUCUCCUGUCUGUCCUCAUUUCACCACAAAUGGUAAUGAAAAUUCAAGUAUAGAGAAGACAAGUUCACUAGAAUCUGCAUCUAAUAUCAACAGAGGAUUGAGCAUCA
B18: chr22:36281679:36281692:-|3pUTR|ENSG00000100345|msi1_unk|FALSE|overlapping (ssRNA)
RNA: B3 RNA with C38U, C39A, C83U, C84A
B19: chr12:24812190:24812291:-|3pUTR|ENSG00000060982|msi1|FALSE|unique (ssRNA)
RNA: GGGAGUUCUACAGUCCGACGAUCUUUACUAUCUCCUAUCCUGAUAGGUGGAAGGUUUACUGAAUUGGAAAUUGGUUGACUAUUAGUUUUUAACUAAAAUGUGCAAUAACACAUUGCAGUUUCCUCAAACUAGUUUCCUAUGAUCAACAGAGGAUUGAGCAUCA
B20: chr17:5489330:5489445:+|CDS|ENSG00000167842|unk|FALSE|unique (ssRNA)
RNA: GGGAGUUCUACAGUCCGACGAUCACGUUGACUUUCUUUGAUGAGCUUCAUAAUGUUGGCAGAGAUCAUGGGACUAGUGAUUUUAGGGAGAGUUUAGUAUCCCUGGUUCAGAACUCCAGAAAACUACAGAACAUUAGAGACAAUCAACAGAGGAUUGAGCAUCA
B21: ENSG00000107863:be:win_4951|CDS|ENSG00000107863|bound_else_gene|NA|bound_elsewhere_windowed (ssRNA)
RNA: GGGAGUUCUACAGUCCGACGAUCGAGAGGCUUUUCCGAGGAAAACUGCAAGAAGUGACUAAGAGCAGCCGGAGAAAUUCUGAAGGAAGUGAAUUAAGUUGCACCGAGGGAAGUUUAACAUCAAGUUUAGAUAGCCGGAGACAGCAACAGAGGAUUGAGCAUCA
B22: ENSG00000198589:be:win_1801|CDS|ENSG00000198589|bound_else_gene|NA|bound_elsewhere_windowed (ssRNA)
RNA: GGGAGUUCUACAGUCCGACGAUCACAGUCAACAUAUAUAACACCAUUCGGAGAGUUGGAACAGUGCUUCUCAUCAUGCACACGCUGAAGUACUACUACUGGGCAGUGAAUCCUCAGGAUCGAAGUGGUAUCACCCCAAAAGGACAACAGAGGAUUGAGCAUCA

Changes are numbered by the printed parent chain. Some of the results follow.

The target of this assay is MSI1 full-length (mouse, UniProt Q61474 1-362). Nature of the assay: nsRBNS (natural sequence RNA bind-n-seq); RBNS binding buffer (assumed for nsRBNS): 25 mM Tris pH 7.5, 150 mM KCl, 3 mM MgCl2, 0.01% Triton X-100, 500 ug/ml BSA, 20 U/ml SUPERase-In, 4 C; UNK is unkempt and MSI1 is Musashi-1; names of the RNAs are library labels; protein concentration not given here; high values mean tight binding.
Sequence of UniProt Q61474 (Q61474 whole entry): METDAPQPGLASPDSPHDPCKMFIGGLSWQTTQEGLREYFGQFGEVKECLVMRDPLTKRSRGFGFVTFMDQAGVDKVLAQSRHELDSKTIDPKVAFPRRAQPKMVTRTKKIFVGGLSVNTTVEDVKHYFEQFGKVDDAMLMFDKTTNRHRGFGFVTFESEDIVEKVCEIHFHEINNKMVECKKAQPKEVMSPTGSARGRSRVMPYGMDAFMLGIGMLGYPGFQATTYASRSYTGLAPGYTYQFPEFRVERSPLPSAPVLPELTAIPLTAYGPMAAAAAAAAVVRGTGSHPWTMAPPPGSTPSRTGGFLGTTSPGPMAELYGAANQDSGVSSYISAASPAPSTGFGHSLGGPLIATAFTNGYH
Take B1: the binding signal was 9.98 enrichment R.
Then B2, with 0.598 enrichment R; and B3, with 0.385 enrichment R; and B4, with 0.317 enrichment R.
Take B5: the binding signal amounted to 0.255 enrichment R.
Take B6: the binding signal was 1.99 enrichment R.
For the molecule B7, the binding signal amounted to 0.264 enrichment R.
Molecule B8 had a binding signal of 0.775 enrichment R.
Then B9, with 0.449 enrichment R; and B10, with 0.258 enrichment R; and B11, with 0.287 enrichment R.
B12 displayed a binding signal of 0.485 enrichment R.
In turn, B13 came in with a binding signal of 1.06 enrichment R.
Then B14, with 0.34 enrichment R; and B15, with 0.392 enrichment R.
Then B16, with 0.351 enrichment R; and B17, with 0.338 enrichment R; and B18, with 1.92 enrichment R.
Then B19, with 0.804 enrichment R; and B20, with 1.88 enrichment R.
With B21, the binding signal turned out to be 0.79 enrichment R.
Then B22, with 0.541 enrichment R.
